In PubChem BioAssay AID651820 (National Center for Advancing Translational Sciences (NCATS), 2012):
Out of some 340,000 compounds screened, about 12,000 (3.5%) were called active. Inconclusive means that the source gave no clear call. Such entries were picked first, then a sample of the others. Calls follow the shape of the dose curve; as a rule, active = well fitted inhibition curve with a large enough effect; inconclusive = small, poorly fitted or top-dose-only effect, or another doubt; inactive = no such curve, though single readings can be large or run the other way. No potency is given beside an inconclusive call; the fits are too rough.

assay: qHTS Assay for Inhibitors of Hepatitis C Virus (HCV); conditions: Huh7.5.1 HCVcc-Cre (HCVcc is cell-culture hepatitis C virus) infection, luciferase reporter, 44 h; activity change, negative = inhibition: at 41.8 µM (top of the series) unless noted
Procedure, shortened: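 Cells seeded at 1,000/well and cultured 4 h, then compounds added followed by HCVcc-Cre virus (~0.5 moi). After 44 h further culture, luciferase substrate was added, plates held 15 min at room temperature, and luminescence read for 15 sec.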
% is scaled to controls: 0 for no effect and ±100 for the full control effect; potency is read from the fitted curve at half-maximal effect; tags tell the direction and shape of the fitted curve.

| SMILES | activity change, negative = inhibition | Potency |
| --- | --- | --- |
| CCCCOC(=O)c1ccc(NC(=O)C(=O)NCCN(CC)CC)cc1 | inconclusive: -45.9% [inhibitor] |  |
| Cc1cc(C)c2cc(CN(CC3CCCO3)C(=S)NCc3ccco3)c(=O)[nH]c2c1 (stereo not drawn) |  | inconclusive [inhibitor, partial curve] |
| COC(=O)C1=CN(Cc2ccccc2)C=C(C(=O)OC)C1c1ccc(OC)c(OC)c1 |  | inconclusive [inhibitor, single point] |
| COc1ccc(COc2ccsc2C(=O)Nc2ccc(Cl)c(Cl)c2)cc1 |  | inconclusive [inhibitor, partial curve, poor fit] |
| O=C(CN1CCOCCOCCOCC1)Nc1ccccc1 |  | inactive |
| CCOc1ccccc1NC(=O)Nc1ccon1 |  | inconclusive [inhibitor, single point] |
| N=c1n(CCCOc2ccc(Br)cc2)c2ccccc2n1CC(N)=O |  | inconclusive [inhibitor, single point] |
| Cc1ccc(C)c(NC(=O)Cn2cc(C(=O)C3CC3)c3ccccc32)c1 |  | inconclusive [inhibitor, single point] |
| O=C1C=C(c2ccc(Cl)c(C(F)(F)F)c2)C[C@@H](c2ccc3c(c2)OCO3)C1 |  | inconclusive [inhibitor, single point] |
| CCCCc1cc(=O)oc2cc(C)cc(O)c12 |  | inconclusive [inhibitor, partial curve] |
| CSc1nc(NCCOCCO)c2sc3nc(-c4ccco4)c4c(c3c2n1)CCC4 |  | inconclusive [inhibitor, single point] |
| Cc1ccc(C(=O)O/N=C(\N)c2ccccn2)cc1 |  | inactive |
| OC(CNc1nc(C(F)(F)F)nc2ccccc12)c1ccccc1 (stereo not drawn) |  | inconclusive [inhibitor, partial curve] |
| CC(C)c1ccc(S(=O)(=O)/N=C2\C=C(NS(=O)(=O)c3ccccc3)C(=O)c3ccccc32)cc1 |  | inactive |
| CC(C)(C)c1ccc(OCCOc2ccc(C(C)(C)C)cc2NC=O)c(NC=O)c1 |  | active: 10 µM |
| COc1ccc(N=C2S/C(=C\c3ccc(Cl)c([N+](=O)[O-])c3)C(=O)N2CCN(C)C)cc1 |  | inconclusive [inhibitor, single point] |
| O=C(c1ccccc1Br)N1CCCC(c2nc(-c3cccs3)no2)C1 (stereo not drawn) |  | inconclusive [inhibitor, single point] |
| COc1ccc(S(N)(=O)=O)cc1C(=O)OCC(=O)Nc1ncc(Cl)c(C)c1Cl |  | inconclusive [inhibitor, partial curve] |
| COc1cccc(NC(=S)/C(=C(\[O-])c2ccc(OC(F)F)cc2)[n+]2ccccc2)c1 |  | inconclusive [inhibitor, single point] |
| CCCN(CC(=O)Nc1ccccc1C)C(=O)c1ccc(S(=O)(=O)N2CCCC2)cc1 |  | inconclusive [inhibitor, single point] |
| CN1CCN(C(=O)/C=C/c2cn(-c3ccccc3)nc2-c2ccc3c(c2)OCCO3)CC1 |  | inconclusive [inhibitor, single point] |
| CC(C(=O)N1c2ccccc2Sc2ccccc21)n1nnc(-c2cccs2)n1 (stereo not drawn) |  | inactive |
| CCCCOc1ccc(C(=O)NCC(=O)OCC(=O)c2c(N)n(C)c(=O)n(C)c2=O)cc1 |  | inactive |

| SMILES | activity change, negative = inhibition | Potency |
| --- | --- | --- |
| Cc1cc(OCc2nn[nH]n2)c2c(-c3ccccc3)cc(=O)oc2c1 |  | inconclusive [inhibitor, single point] |
| O=C(COc1ccccc1)NCC(c1ccco1)N1CCCCC1 (stereo not drawn) |  | inconclusive [inhibitor, single point] |
| CC12CCC(=O)N1C(C(=O)Nc1nc(-c3ccccc3)cs1)CS2 (stereo not drawn) |  | inconclusive [inhibitor, single point] |
| Cc1ccc(-c2csc(/C=C3\SC(C)C(=O)N3CC(=O)Nc3ccccc3F)n2)cc1 (stereo not drawn) |  | inconclusive [inhibitor, single point] |
| COc1cc(N)c2ncsc2c1 |  | inactive |
| O=C(COC(=O)c1ccc2c(c1)OCCO2)Nc1ccc(F)cc1 |  | inconclusive [inhibitor, full curve, poor fit] |
| CCOC(=O)c1c(NC(=O)c2ccc(C)cc2)sc2c1CC(C)(C)OC2 |  | inconclusive [inhibitor, partial curve] |
| COC(=O)C1=C(C)N(C)C(=O)/C1=C\c1cccs1 |  | inconclusive [inhibitor, partial curve] |
| CCN(CC)c1ccc(-c2nc3cnccc3n2C)cc1 |  | active: 11.2 µM |
| Cc1ccc(Oc2nnc(-c3cccs3)c3ccccc23)cc1C |  | inactive |
| COCCn1c(-c2ccc(SC)cc2)nc2c1c(=O)[nH]c(=O)n2CC(C)C |  | inactive |
| CCn1ncc(Br)c1C(=O)Nc1ccn(C23CC4CC(CC(C4)C2)C3)n1 |  | inconclusive [inhibitor, single point] |
| CN1CCN(CCC=C2c3ccccc3Sc3ccc(S(=O)(=O)N(C)C)cc32)CC1 |  | inconclusive [inhibitor, single point] |
| Cc1ccc(CSc2nnc3nc(C)cc(C)n23)cc1 |  | inactive |
| O=C(C#Cc1ccccc1)c1cccc([N+](=O)[O-])c1 |  | inconclusive [inhibitor, single point] |
| COC(=O)c1ccccc1NC(=O)c1noc2c1CCC2 |  | inconclusive [inhibitor, partial curve] |
| C/C(=N\NC(=O)C1CC1(c1ccccc1)c1ccccc1)c1cccc([N+](=O)[O-])c1 (stereo not drawn) |  | inconclusive [inhibitor, partial curve] |
| CCOc1ccc(NC(=S)NC(=O)c2cccnc2)c([N+](=O)[O-])c1 |  | inactive |
| Cc1ccc(C(C)C)c(OCc2ccc(C(=O)N/N=C/c3cccc(O)c3O)cc2)c1 |  | active: 22.4 µM |
| COc1ccc(NC(=O)CSc2nnc(Cn3nnc4ccccc43)n2C)cc1 |  | inactive |
| CCn1ncc(/C=C/C(=O)Nc2c(C)nn(Cc3ccc(Cl)cc3Cl)c2C)c1C |  | inconclusive [inhibitor, full curve, poor fit] |
| C#CCOCCOCCOCCNc1nc(N2CCN(C(=O)CCCCCCCCCCNC(=O)Cn3cc(C[C@@H](C)O)nn3)CC2)nc(N2CCN(C(=O)CCCCCCCCCCNC(=O)[C@@H]([C@H](C)CC)n3cc(CCCCCN)nn3)CC2)n1 |  | inconclusive [inhibitor, single point] |
| CCOc1cc(CNCc2ccncc2)cc(Cl)c1OC |  | inactive |

| SMILES | activity change, negative = inhibition | Potency |
| --- | --- | --- |
| C=CCN(C(=O)c1csnn1)C(C(=O)NC1CCCC1)c1ccccc1 (stereo not drawn) |  | inactive |
| CSc1ncccc1C(=O)NC1CCCc2c1cnn2-c1ccc(C)c(C)c1 (stereo not drawn) |  | active: 8.91 µM |
| COc1ccc(-c2ccc(NCCC3=CCCCC3)nn2)cc1OC |  | inconclusive [inhibitor, partial curve, poor fit] |
| COc1ccc2oc3cc(C)[n+]([O-])c(-c4ccc(C)cc4)c3c2c1 |  | inconclusive [inhibitor, partial curve] |
| CCn1nc(C(=O)NNC(=O)c2ccccc2OCc2c(C)noc2C)c2ccccc2c1=O |  | inconclusive [inhibitor, single point] |
| CCOc1ccc(-c2nc(C#N)c(N3CCN(C)CC3)o2)cc1 |  | inconclusive [inhibitor, full curve] |
| CCn1c(NC(=O)c2cccs2)nc2ccccc21 |  | inactive |
| O=C(Nc1cccnc1)c1cc2c(s1)-c1ccccc1OC2 |  | inconclusive [inhibitor, single point] |
| COc1ccc(-c2nc(SC(C)C(=O)NCC3CCCO3)n[nH]2)cc1 (stereo not drawn) |  | inconclusive [inhibitor, partial curve] |
| Cc1sc2nc(CSCC(=O)NC3(C#N)CCCCC3)[nH]c(=O)c2c1C |  | inactive |
| CC(OC(=O)c1ccc(Cl)c([N+](=O)[O-])c1)C(=O)N1CCN(Cc2ccccc2)CC1 (stereo not drawn) |  | inconclusive [inhibitor, single point] |
| COC(=O)C1=C(C)N(Cc2ccco2)C(=O)N[C@H]1c1ccc(Br)cc1 | inactive: 0.755% [at 8.37 µM] |  |
| Cc1cc(=O)oc2c(CN3CCN(C)CC3)c(O)c(Cl)cc12 |  | inconclusive [inhibitor, single point] |
| COc1ccc(S(=O)(=O)N2CCCCC2)cc1NC(=O)CCc1nc2ccccc2c(=O)[nH]1 |  | inconclusive [inhibitor, single point] |
| Fc1cccc(NC(=S)Nc2cccc3ccccc23)c1 |  | inconclusive [inhibitor, single point] |
| CC(C)COc1cccc(-c2cc(C(=O)N/N=C/c3ccncc3)c3ccccc3n2)c1 |  | inconclusive [inhibitor, single point] |
| N#CCSc1ncnc2sc3c(c12)CCC3 |  | inconclusive [inhibitor, partial curve] |
| COc1ccc(CC(=O)Nc2cc(S(=O)(=O)N3CCCC3)ccc2Cl)c(OC)c1 |  | inconclusive [inhibitor, partial curve] |
| Cc1ccccc1-n1c(SCC(=O)Nc2ccccc2Cl)nc2n[nH]c(C)c2c1=N |  | inconclusive [inhibitor, single point] |
| COCCn1c(SCC#N)nnc1-c1ccccc1 |  | inactive |
| Cc1ccc(NC(=O)CSc2ncccn2)c([N+](=O)[O-])c1 |  | inconclusive [inhibitor, single point] |
| CCCN1CCC(=O)N([C@H](CSc2ccc(Br)cc2)c2ccccc2)CC1 |  | inconclusive [inhibitor, single point] |
